{
  "source": "paper PMC4336329",
  "about": "(PLoS ONE, 2015)",
  "note": "Screen size: about 310,000 compounds; about 2,200 (0.71%) showed an effect of 50% or more. The effect is printed as a negative number. The list shows a part of the results.",
  "data": [
    {"target": "human ether-à-go-go-related gene (hERG) potassium channel (human, UniProt Q12809)", "sequence (Q12809 whole entry, looked up)": "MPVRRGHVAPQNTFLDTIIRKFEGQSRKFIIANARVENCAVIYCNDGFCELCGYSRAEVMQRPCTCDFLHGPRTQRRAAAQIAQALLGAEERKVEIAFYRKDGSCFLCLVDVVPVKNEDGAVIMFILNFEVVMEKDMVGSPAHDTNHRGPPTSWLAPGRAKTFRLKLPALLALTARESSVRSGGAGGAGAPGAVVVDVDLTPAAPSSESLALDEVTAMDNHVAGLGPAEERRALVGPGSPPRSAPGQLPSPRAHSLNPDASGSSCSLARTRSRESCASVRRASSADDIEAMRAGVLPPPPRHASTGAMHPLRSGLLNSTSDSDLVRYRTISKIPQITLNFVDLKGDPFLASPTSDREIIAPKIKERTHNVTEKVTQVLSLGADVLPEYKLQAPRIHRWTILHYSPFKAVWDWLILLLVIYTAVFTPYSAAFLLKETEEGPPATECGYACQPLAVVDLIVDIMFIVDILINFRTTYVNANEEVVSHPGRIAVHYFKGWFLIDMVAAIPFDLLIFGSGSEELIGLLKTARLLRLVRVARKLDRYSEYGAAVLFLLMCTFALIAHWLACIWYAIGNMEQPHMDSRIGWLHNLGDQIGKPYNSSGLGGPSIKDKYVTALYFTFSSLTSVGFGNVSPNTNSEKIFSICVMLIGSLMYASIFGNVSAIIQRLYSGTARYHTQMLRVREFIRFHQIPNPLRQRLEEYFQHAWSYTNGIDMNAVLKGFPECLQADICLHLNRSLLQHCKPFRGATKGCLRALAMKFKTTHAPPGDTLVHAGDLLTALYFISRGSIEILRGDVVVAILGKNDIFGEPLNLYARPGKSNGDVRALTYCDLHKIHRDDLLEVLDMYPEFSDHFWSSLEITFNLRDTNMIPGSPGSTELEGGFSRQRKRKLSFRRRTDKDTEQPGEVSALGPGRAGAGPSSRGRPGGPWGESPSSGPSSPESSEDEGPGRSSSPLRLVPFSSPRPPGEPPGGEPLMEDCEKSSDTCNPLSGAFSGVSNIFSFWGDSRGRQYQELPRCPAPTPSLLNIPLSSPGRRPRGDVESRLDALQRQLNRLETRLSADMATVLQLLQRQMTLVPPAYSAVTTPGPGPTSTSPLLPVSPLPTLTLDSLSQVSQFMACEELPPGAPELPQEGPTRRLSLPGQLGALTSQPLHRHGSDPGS", "assay": "primary screen, population patch clamp on CHO cells stably expressing hERG", "units": {"hERG current change (%, negative = inhibition) at 1uM": "%"}, "values": [
      {"smiles": "CCN(CC)CCNC(=O)c1cc([N+](=O)[O-])c(N(C)C)cc1OC.Cl", "hERG current change (%, negative = inhibition) at 1uM": 5.46},
      {"smiles": "CSc1nc(-c2ccccc2)nc(SC)c1C(C)=O", "hERG current change (%, negative = inhibition) at 1uM": 18},
      {"smiles": "O=C(c1ccccc1)N1CCC2(CC1)OCCO2", "hERG current change (%, negative = inhibition) at 1uM": 8.32},
      {"smiles": "COc1ccccc1/C(C)=N/NC(=S)NCc1ccccc1", "hERG current change (%, negative = inhibition) at 1uM": 0.32},
      {"smiles": "COC(=O)c1ccc(/C=N/NC(=O)C2CC(=O)N(c3ccc(OC)cc3)C2)cc1", "note": "(stereo not shown)", "hERG current change (%, negative = inhibition) at 1uM": -10.3},
      {"smiles": "CC(NS(=O)(=O)c1ccc(NC(=O)N2CCCCC2)cc1)c1ccccc1", "note": "(stereo not shown)", "hERG current change (%, negative = inhibition) at 1uM": 4.77},
      {"smiles": "COc1cc2c(cc1OC)CN(C(=O)c1cc(S(=O)(=O)N3CCCCC3)ccc1Cl)CC2", "hERG current change (%, negative = inhibition) at 1uM": 8.25},
      {"smiles": "C=C[C@@H](C)N(Cc1ccc(OC)cc1)S(=O)(=O)N(Cc1ccccc1)[C@H](C=C)C(C)C", "hERG current change (%, negative = inhibition) at 1uM": 9.23},
      {"smiles": "CC(C)c1ccc(NC2CCCN(C(=O)CN3C(=O)CSC3=O)C2)cc1", "note": "(stereo not shown)", "hERG current change (%, negative = inhibition) at 1uM": 32.2},
      {"smiles": "Cn1c(N)c(C(=O)COC(=O)c2cc(-c3ccccc3)nc3ccccc23)c(=O)n(C)c1=O", "hERG current change (%, negative = inhibition) at 1uM": 9.8},
      {"smiles": "CCCc1cc(=O)oc2c(CN3CCCC3)c(O)c(Cl)cc12", "hERG current change (%, negative = inhibition) at 1uM": -14.7},
      {"smiles": "CC1CCCN(C(=S)Nc2ccc(F)cc2)C1", "note": "(stereo not shown)", "hERG current change (%, negative = inhibition) at 1uM": 12.2},
      {"smiles": "N#CCSc1nc2cc(C(=O)N3CCCC3)ccc2c(=O)n1Cc1ccccc1", "hERG current change (%, negative = inhibition) at 1uM": 14.7},
      {"smiles": "COC(=O)c1ccc(C2/C(=C(/O)c3ccc(OC)cc3)C(=O)C(=O)N2Cc2ccco2)cc1", "note": "(stereo not shown)", "hERG current change (%, negative = inhibition) at 1uM": 12.4},
      {"smiles": "Cc1nc2sc3c(c2c(=O)o1)CC(C)(C)OC3", "hERG current change (%, negative = inhibition) at 1uM": 14.1},
      {"smiles": "O=C(NCc1ccco1)C1CC(c2cc(C(F)(F)F)cc(C(F)(F)F)c2)=NO1", "note": "(stereo not shown)", "hERG current change (%, negative = inhibition) at 1uM": 11.4},
      {"smiles": "CC(C)NC[C@H](O)COc1cccc2[nH]ccc12", "hERG current change (%, negative = inhibition) at 1uM": 7.69},
      {"smiles": "CC(C)Oc1ccc(CCC(=O)NNC(=O)c2ccccc2C(=O)O)cc1", "hERG current change (%, negative = inhibition) at 1uM": 20.5},
      {"smiles": "Cc1ccc(C)c(N(CC(=O)NCc2ccco2)C(=O)CNS(=O)(=O)c2ccc(F)cc2)c1", "hERG current change (%, negative = inhibition) at 1uM": 5.39},
      {"smiles": "Cc1cccc(C(=O)NCC(=O)N2CCN(S(=O)(=O)c3ccccc3)CC2)c1", "hERG current change (%, negative = inhibition) at 1uM": 7.61},
      {"smiles": "CC(C)[C@H](NC(=O)c1ccco1)C(=O)OCC(=O)N1CCc2ccccc21", "hERG current change (%, negative = inhibition) at 1uM": 2.01},
      {"smiles": "O=C(O)c1ccc(CS(=O)(=O)c2c(Cl)cccc2Cl)o1", "hERG current change (%, negative = inhibition) at 1uM": 15.4},
      {"smiles": "Cn1c(=O)n(C)c2cc([N+](=O)[O-])c(N3CCN(CCO)CC3)cc21", "hERG current change (%, negative = inhibition) at 1uM": 9.04},
      {"smiles": "CC(=O)NCCc1nc2ccccc2n1Cc1ccccc1", "hERG current change (%, negative = inhibition) at 1uM": 9.65},
      {"smiles": "CCOc1ccc(S(=O)(=O)N(CC(N)=O)c2ccc(C)cc2)cc1", "hERG current change (%, negative = inhibition) at 1uM": 4.63},
      {"smiles": "CS(=O)(=O)c1ccc(C(=O)OCC(=O)NC2CCS(=O)(=O)C2)cc1[N+](=O)[O-]", "note": "(stereo not shown)", "hERG current change (%, negative = inhibition) at 1uM": 7.69},
      {"smiles": "CCSc1nnc(NC(=O)c2ccccc2)s1", "hERG current change (%, negative = inhibition) at 1uM": -0.488},
      {"smiles": "Cc1ccc(NC(=S)Nc2ccc3cn[nH]c3c2)c(C)c1", "hERG current change (%, negative = inhibition) at 1uM": -9.39},
      {"smiles": "Cn1c(=O)c2c(nc(CN3CCN(c4ccccc4)CC3)n2CCN2CCOCC2)n(C)c1=O", "hERG current change (%, negative = inhibition) at 1uM": -11.1},
      {"smiles": "O=C(NCc1cccc(Br)c1)C1CC(c2ccc(C(F)(F)F)cc2)=NO1", "note": "(stereo not shown)", "hERG current change (%, negative = inhibition) at 1uM": 8.65},
      {"smiles": "CC(C)NC(=O)c1cc(-c2cccs2)on1", "hERG current change (%, negative = inhibition) at 1uM": 3.47},
      {"smiles": "CCOc1cc(S(=O)(=O)NCc2ccc(OC)cc2)c(OCC)cc1-n1cnnn1", "hERG current change (%, negative = inhibition) at 1uM": 2.34},
      {"smiles": "COc1ccc(OC)c(/C=N/N(CCC#N)C2=NS(=O)(=O)c3ccccc32)c1", "hERG current change (%, negative = inhibition) at 1uM": 9.43},
      {"smiles": "CC1CC1C(=O)OCC(=O)NNC(=O)c1ccc([N+](=O)[O-])cc1", "note": "(stereo not shown)", "hERG current change (%, negative = inhibition) at 1uM": 13.6},
      {"smiles": "N#Cc1cc2ccccc2nc1SCc1ccccn1", "hERG current change (%, negative = inhibition) at 1uM": 3.8},
      {"smiles": "COc1cc(OC)cc(C(=O)Nc2ccc(S(=O)(=O)N3CCOCC3)cc2)c1", "hERG current change (%, negative = inhibition) at 1uM": 12.7},
      {"smiles": "CCCn1nc(C(=O)Nc2cccc(C(=O)OC)c2)c2ccccc2c1=O", "hERG current change (%, negative = inhibition) at 1uM": 14.5},
      {"smiles": "Cc1ccc(C(=O)NN2C(=O)/C(=C/c3cn(C)c4ccccc34)SC2=S)cc1", "hERG current change (%, negative = inhibition) at 1uM": 10.4},
      {"smiles": "Cc1ccc(OCC(=O)Oc2c(C)cccc2C)cc1", "hERG current change (%, negative = inhibition) at 1uM": 12.3},
      {"smiles": "COc1ccc(-c2ccc3ccccc3n2)cc1OC", "hERG current change (%, negative = inhibition) at 1uM": 9.24},
      {"smiles": "COC(=O)COc1ccc(S(=O)(=O)N2CCc3ccccc3C2)cc1C", "hERG current change (%, negative = inhibition) at 1uM": 10.9},
      {"smiles": "Cl.Clc1ccc(-c2ccc(CNCC3CCCO3)o2)cc1", "note": "(stereo not shown)", "hERG current change (%, negative = inhibition) at 1uM": 4.36},
      {"smiles": "CSc1cccc(CN2CCC(n3nccc3NC(=O)C3CC3)CC2)c1", "hERG current change (%, negative = inhibition) at 1uM": -18.7},
      {"smiles": "CCCCCCn1c(N2CCN(c3cccc(Cl)c3)CC2)nc2c1c(=O)[nH]c(=O)n2C", "hERG current change (%, negative = inhibition) at 1uM": 11.6},
      {"smiles": "COc1cccc(-c2c(C(=O)N/N=C/c3ccc(C)s3)nnn2-c2nonc2N)c1", "hERG current change (%, negative = inhibition) at 1uM": 3.27},
      {"smiles": "CN(CC(=O)N1CCN(c2ccccc2F)CC1)S(=O)(=O)c1cnc[nH]1", "hERG current change (%, negative = inhibition) at 1uM": 5.05},
      {"smiles": "COCCN(C(=O)COC(=O)CCC(=O)c1ccc(Cl)cc1)c1c(N)n(Cc2ccccc2)c(=O)[nH]c1=O", "hERG current change (%, negative = inhibition) at 1uM": 9.48},
      {"smiles": "CC(=O)c1cccc(NC(=O)CSc2ccc(-c3ccco3)nn2)c1", "hERG current change (%, negative = inhibition) at 1uM": 11.7},
      {"smiles": "Br.c1ccc(CN2CCC(N=C3NN=C(c4ccc5c(c4)OCCO5)CS3)CC2)cc1", "hERG current change (%, negative = inhibition) at 1uM": 5.2},
      {"smiles": "Oc1cc2c(cc1O)CN(C(=S)NCCc1ccc(Cl)cc1)CCC2", "hERG current change (%, negative = inhibition) at 1uM": 3.97},
      {"smiles": "CCCc1cc(C(=O)N2CCCC(C(=O)c3cccc4ccccc34)C2)n(C)n1", "note": "(stereo not shown)", "hERG current change (%, negative = inhibition) at 1uM": 12.6},
      {"smiles": "Cc1cc2[nH]c(=O)c(=O)[nH]c2cc1S(=O)(=O)N1CCN(c2cccc(C)c2C)CC1", "hERG current change (%, negative = inhibition) at 1uM": -2.64},
      {"smiles": "CCCn1c(=O)[nH]c(=O)c2c1nc(-c1ccc(OC(F)(F)C(F)C(F)(F)F)cc1)n2CCOC", "note": "(stereo not shown)", "hERG current change (%, negative = inhibition) at 1uM": -2.67},
      {"smiles": "CN(CCOc1ccc(Cl)cc1)C(=O)Cc1ccc(S(=O)(=O)N2CCOCC2)s1", "hERG current change (%, negative = inhibition) at 1uM": 2.85},
      {"smiles": "CCOC(=O)CNC(=O)CSc1ncnc2c1cnn2Cc1ccccc1", "hERG current change (%, negative = inhibition) at 1uM": 2.68}
    ]}
  ]
}
